Experimental findings from publication PMC11447022, “Distinct binding conformations of epinephrine with α- and β-adrenergic receptors” (Experimental & Molecular Medicine, 2024) are described below.

This experiment has as its target T1, human α2A-adrenergic receptor (human, UniProt P08913 1-465).
T1 construct: α2A-adrenergic receptor, human; printed residue numbers (D128, R146, I154, R241, Y441) are those of the deposited models; eGFP and 8xHis follow a PreScission site and were removed by PreScission protease during complex assembly; In the cAMP assays α2A-AR was transfected into HEK293 or CHO cells; that plasmid construct is not described; also called α2A-AR; source: Sf9 insect cells, purified …
T1 sequence (looked up): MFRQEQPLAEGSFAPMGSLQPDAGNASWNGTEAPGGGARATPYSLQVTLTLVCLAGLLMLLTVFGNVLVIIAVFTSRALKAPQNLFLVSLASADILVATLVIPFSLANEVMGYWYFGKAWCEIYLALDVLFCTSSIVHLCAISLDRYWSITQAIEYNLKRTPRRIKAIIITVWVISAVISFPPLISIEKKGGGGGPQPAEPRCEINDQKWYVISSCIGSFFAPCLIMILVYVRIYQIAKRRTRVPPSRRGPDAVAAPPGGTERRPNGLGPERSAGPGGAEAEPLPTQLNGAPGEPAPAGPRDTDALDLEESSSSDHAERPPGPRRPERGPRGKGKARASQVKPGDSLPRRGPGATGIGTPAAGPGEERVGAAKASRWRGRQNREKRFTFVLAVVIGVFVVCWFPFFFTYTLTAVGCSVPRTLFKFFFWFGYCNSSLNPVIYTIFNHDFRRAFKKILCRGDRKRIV
Kind of experiment: cryo-EM structure; epinephrine–α2A-AR–Gi complex assembled from purified proteins with apyrase and 1 mM epinephrine, purified by SEC in 10 mM HEPES (pH 7), 100 mM NaCl, 0.1 mM TCEP, 0.02% LMNG, 25 µM epinephrine; Gαi nucleotide free; 2.8 Å. The settings on record: both partners purified. For orientation: SEC sorts molecules by how far they enter the pores of the column.

B1: rat Gαi dominant negative (G203A) (natural protein)
chain: not shown
notes: Nucleotide free in the complex with α2A-AR (apyrase added during assembly); also called Gαi1(G203A); Gαi(G203A); source: E. coli BL21 (DE3), purified (Ni-NTA, SEC)
In the case of B1, the binding result is “binds”.
